Measured values taken from the supplement of paper PMC12217912.
The list shows a part of the results. Sequences were assembled here from the parent chain. Values near 0.05 are background.

B1: TEV protease; numbered along this chain (parent)
chain: MGESLFKGPRDYNPISSSICHLTNESDGHTTSLYGIGFGPFIITNKHLFRRNNGTLVVQSLHGVFKVKDTTTLQQHLVDGRDMIIIRMPKDFPPFPQKLKFREPQREERICLVTTNFQTKSMSSMVSDTSCTFPSGDGIFWKHWIQTKDGQCGSPLVSTRDGFIVGIHSASNFTNTNNYFTSVPKNFMELLTNQEAQQWVSGWRLNADSVLWGGHKVFMVKPEEPFQPVKEATQL

Variants of: B1
Experiment: raw area under fraction-flipped curve 0-4 h after induction (AUC4h, not background-subtracted), DNA-recorder readout of cleavage of the substrate (dimensionless); higher = more cleavage of the substrate by the protease variant
Settings: temperature: 34 °C; time window: 0-4 h after rhamnose induction
Procedure: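 In vivo DNA recorder in E. coli TOP10(DE3) ΔrhaA at 34 °C. Each TEVp single-site mutant (parent TEVp 0) is paired with a single-site variant of the 7-mer TEVs (canonical ENLYFQ|S). The substrate sits between flexible linkers in a Bxb1-sfGFP-TEVs-SsrA fusion, so cleavage stabilises Bxb1 and speeds flipping of a recombination array, read by NGS. The value is the raw area under the fraction-flipped curve over 0-4 h after rhamnose induction (AUC4h), with ≥20 reads per time point. It is not background-subtracted; inactive controls average about 0.047.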
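Also: Bxb1 expression induced with 0.2% (w/v) L-rhamnose at OD600 near 0.5, cultures sampled hourly, flipped fraction per protease–substrate barcode pair counted by paired-end Illumina sequencing.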

Variant | area with substrate ENLAFQS | area with substrate ENLCFQS | area with substrate ENLDFQS | area with substrate ENLFFQS | area with substrate ENLHFQS | area with substrate ENLIFQS | area with substrate ENLKFQS | area with substrate ENLPFQS | area with substrate ENLQFQS | area with substrate ENLRFQS | area with substrate ENLSFQS | area with substrate ENLTFQS | area with substrate ENLVFQS | area with substrate ENLMFQS | area with substrate ENLNFQS | area with substrate ENLWFQS | area with substrate ENLLFQS | area with substrate ENLEFQS | area with substrate ENLGFQS
L5A | 0.0621 | 0.0743 | 0.0608 | 0.129 | 0.0809 | 0.0995 | 0.0853 | 0.0538 | 0.0498 | 0.08 | 0.0444 | 0.0669 | 0.0548 |  |  |  |  |  | 
L5C | 0.0609 | 0.0942 | 0.0791 | 0.089 | 0.0659 |  | 0.0631 |  | 0.0655 |  |  |  | 0.0807 | 0.0871 | 0.0681 | 0.0712 |  |  | 
L5V | 0.0689 |  | 0.054 | 0.0852 |  | 0.102 | 0.0871 | 0.0572 |  |  | 0.0617 |  |  |  |  |  | 0.0569 |  | 
F6D | 0.0577 |  | 0.077 | 0.0707 |  |  | 0.0703 |  |  |  |  |  | 0.0933 |  | 0.0659 |  | 0.0548 | 0.056 | 
F6P | 0.0724 |  |  | 0.0831 | 0.0519 |  | 0.0649 |  | 0.0744 | 0.0684 |  |  | 0.0806 |  |  |  |  | 0.065 | 
F6W | 0.0643 |  | 0.0618 | 0.0664 | 0.0533 |  | 0.0772 | 0.0814 | 0.0702 |  | 0.0697 | 0.0756 |  |  | 0.0648 | 0.0631 |  |  | 
K7G | 0.0514 |  | 0.0616 | 0.0782 | 0.0856 |  | 0.0848 | 0.0677 |  |  | 0.0721 |  | 0.0729 |  | 0.0543 | 0.0585 |  | 0.0591 | 
P9I | 0.062 |  | 0.0489 |  | 0.0632 |  | 0.0913 | 0.0635 |  |  |  |  | 0.0986 |  | 0.0803 | 0.0705 | 0.0741 | 0.0637 | 
R10F | 0.0641 | 0.0377 | 0.0548 |  | 0.0698 |  | 0.0722 | 0.0629 | 0.0667 | 0.0744 | 0.0632 |  |  |  | 0.061 | 0.0899 | 0.0223 |  | 0.0763
R10T | 0.0716 |  |  |  | 0.06 | 0.0694 | 0.0781 |  | 0.0697 | 0.082 | 0.0717 |  |  | 0.0746 | 0.0581 | 0.0731 |  |  | 0.0568
D11C | 0.0832 | 0.0652 | 0.0671 | 0.103 | 0.0759 | 0.104 | 0.0682 | 0.0462 | 0.0631 |  | 0.0589 |  | 0.0928 |  | 0.0532 | 0.0657 |  | 0.0627 | 0.0703
P14L | 0.0661 | 0.0815 | 0.0738 |  | 0.0902 |  | 0.0805 |  | 0.0513 | 0.0879 | 0.0468 |  |  | 0.079 | 0.0736 | 0.085 | 0.0683 | 0.0717 | 
I15T | 0.0498 |  | 0.0407 | 0.0813 | 0.0694 |  | 0.0727 | 0.0602 | 0.0576 | 0.0556 | 0.0427 |  |  | 0.063 | 0.0676 | 0.0706 | 0.0697 | 0.0669 | 
S17T | 0.074 | 0.0598 | 0.0627 | 0.0708 |  | 0.074 | 0.0777 |  | 0.132 |  | 0.0586 |  |  |  | 0.0623 | 0.0754 | 0.0933 | 0.0818 | 0.0615
S18H | 0.0556 | 0.0816 |  | 0.0873 |  | 0.0885 | 0.0879 | 0.0612 | 0.0746 |  |  |  |  |  |  | 0.0827 | 0.0596 |  | 
T23D | 0.0675 | 0.0471 | 0.0647 |  | 0.0685 | 0.0975 | 0.0668 | 0.0429 | 0.0521 | 0.0454 | 0.0566 |  | 0.101 |  | 0.0614 | 0.0712 | 0.0668 | 0.0553 | 
S26Y | 0.068 |  | 0.0615 | 0.0563 | 0.0638 |  |  |  | 0.0629 |  | 0.0686 |  |  | 0.079 | 0.0617 |  | 0.0712 |  | 0.0791
D27N | 0.0501 | 0.0937 | 0.058 | 0.0985 | 0.0696 |  | 0.0584 | 0.0585 | 0.0536 | 0.0387 | 0.0693 |  |  | 0.0668 |  |  |  |  | 
T30P | 0.0689 | 0.0403 | 0.0623 | 0.0828 | 0.0078 | 0.0677 |  | 0.0542 | 0.0709 |  | 0.0255 |  | 0.0697 |  | 0.0469 | 0.0554 | 0.053 |  | 0.0515
Y34V | 0.0662 |  | 0.0583 | 0.0779 |  |  |  | 0.0655 |  | 0.066 | 0.0764 |  |  |  | 0.0671 |  |  | 0.0475 | 0.046
G37H | 0.0613 |  | 0.0609 | 0.0723 |  | 0.0643 | 0.0793 |  | 0.0553 | 0.0654 | 0.0655 | 0.0591 | 0.076 | 0.0687 | 0.0542 | 0.0358 |  |  | 
F38H | 0.0606 | 0.0631 | 0.0702 | 0.0675 | 0.0611 | 0.082 |  | 0.0656 | 0.0642 |  | 0.054 |  | 0.0938 |  | 0.0669 | 0.0775 | 0.0717 | 0.0743 | 
F38Q | 0.0665 | 0.0635 | 0.0643 | 0.0922 | 0.0621 | 0.0886 | 0.0675 | 0.0534 | 0.0719 | 0.0666 | 0.0568 |  | 0.0737 |  | 0.0567 | 0.0559 | 0.0667 | 0.0628 | 0.0591
P40V | 0.0628 | 0.0702 | 0.056 | 0.083 | 0.0653 |  | 0.0847 |  |  | 0.0798 | 0.0561 |  | 0.106 | 0.095 | 0.0543 |  |  | 0.0717 | 0.03
F41H | 0.0554 |  | 0.0573 | 0.0786 | 0.0636 | 0.0781 | 0.0633 |  |  | 0.0747 | 0.0599 |  |  |  | 0.0659 | 0.059 | 0.0505 | 0.0561 | 
I42K | 0.0522 | 0.0592 | 0.0547 | 0.0462 | 0.0406 | 0.0417 | 0.0489 | 0.0411 | 0.044 | 0.0458 | 0.0563 | 0.0446 | 0.0482 | 0.0366 | 0.0505 | 0.0443 |  | 0.0539 | 0.0527
I43Y | 0.0532 | 0.0782 | 0.0541 | 0.0582 | 0.056 | 0.0682 | 0.075 | 0.0455 |  |  | 0.0422 |  |  |  | 0.0654 |  | 0.0476 | 0.0435 | 0.051
F49W | 0.0634 | 0.0889 | 0.0625 | 0.0827 | 0.0527 | 0.0912 | 0.0736 | 0.0618 | 0.0549 | 0.0738 | 0.0564 |  | 0.0751 | 0.0641 | 0.0657 | 0.0744 | 0.061 | 0.0533 | 
